This assay in a line: qHTS Assay for Lipid Storage Modulators (AID 1519). The conditions noted are these: Drosophila S3 cells, BODIPY lipid droplet/cell ratio, laser cytometry, cells loaded with oleic acid. An outline of the steps:
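Cells seeded at 5,000 per well were treated with compounds over a concentration series and loaded with oleic acid (400 uM, as added). Lipid droplet fluorescence (488 nm excitation, 500-530 nm channel) was read by laser-scanning cytometry and normalized to 20 uM Triacsin C.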

The mark [1] stands for this setting: measured here: cell count channel max response.
The mark [2] stands for this setting: measured here: cell number channel AC50.
The mark [3] stands for this setting: measured here: lipid (BODIPY) channel AC50.
Where [4] appears, read: measured here: lipid channel max response.

Each structure is given as a SMILES string. Values joined by “and” are separate entries in the source; they are usually repeats but may differ in a detail not shown here. Equal values may be shown once. This is one part of the list. These are further read-outs of the screen, such as a control signal, another cell line or another target. No call is given for them. Most of these compounds were active or inconclusive in the main read-out, so they are no random draw. Words in brackets tell the shape of the fitted curve; partial curves, single points and poor fits give uncertain potencies.
Tags give direction and shape of the fitted curve.

For the compound `CCOc1ccc(/C=C/C(=O)c2cccs2)cc1`, the max response by setting is: under setting [1], 83.9%; under setting [4], 92.7%. Moreover, the AC50 – broadly, the midpoint of the concentration-response curve, whichever way the signal moves – was 14.1 µM [rising, partial curve, poor fit] under setting [2] and 14.1 µM [rising, partial curve, poor fit] under setting [3].

In the case of `N=C(N)SCCc1ccc(CCSC(=N)N)cc1`, the max response under setting [1] was -63.6% and the max response under setting [4] is -61.6%. Besides, the AC50 reads like this: under setting [2], 25.1 µM [falling, partial curve]; under setting [3], 25.1 µM [falling, partial curve].

Take `O=S(=O)(c1ccccc1)N1CCC2(CCCN(Cc3ccncc3)C2)CC1`: the max response reads like this: under setting [1], 44.9%; under setting [4], 51.6%. In addition, the AC50 reads like this: under setting [2], 2 µM [rising, full curve]; under setting [3], 2.24 µM [rising, full curve].

With `CCN(CC)C[C@@H]1CCCCN1CC(=O)N1c2ccccc2C(=O)Nc2cccnc21`, the max response reads like this: under setting [1], 38.7%; under setting [4], 51.7%. For the same compound, the AC50 under setting [2] was 14.1 µM [rising, full curve, poor fit] and the AC50 under setting [3] was 17.8 µM [rising, full curve, poor fit].

In the case of `CCOC(=O)c1ccc(OC(=O)CCCCCN=C(N)N)cc1`, the max response turned out to be 38.6% under setting [1] and 53.1% under setting [4]. The AC50 was 28.2 µM [rising, partial curve, poor fit] under setting [2] and 28.2 µM [rising, partial curve, poor fit] under setting [3].

For `O=c1c(-c2cccs2)nc2cncnc2n1Cc1ccc(F)cc1`, the max response under setting [1] stood at 5.79% and the max response under setting [4] was -1.49%. Also, the AC50 was 1.26 µM [rising, partial curve, poor fit] under setting [2] and 1 µM [rising, partial curve, poor fit] under setting [3].

Regarding `COc1cccc2oc(-c3ccccc3)cc(=O)c12`, the max response by setting is: under setting [1], 109%; under setting [4], 139%. In addition, the AC50 was 8.91 µM [rising, partial curve] under setting [2] and 5.01 µM [rising, partial curve] under setting [3].

Regarding `COCCn1c(=O)c(C)nc2cnc(N3CCOCC3)nc21`, the max response by setting is: under setting [1], 32.3%; under setting [4], 39%. Besides, the AC50 is 8.91 µM [rising, partial curve] under setting [2] and 8.91 µM [rising, partial curve] under setting [3].

As to `CCNc1ncc2nc(-c3ccccc3)c(=O)n(CCC#N)c2n1`, the max response reads like this: under setting [1], 10.3%; under setting [4], 15.4%. Also, the AC50 by setting is: under setting [2], 0.398 µM [rising, partial curve]; under setting [3], 0.282 µM [rising, partial curve].

In the case of `CCNc1ncc2nc(-c3cc(F)cc(F)c3)c(=O)n(Cc3cccs3)c2n1`, the max response reads like this: under setting [1], 13.4%; under setting [4], 20.6%. Besides, the AC50 was 0.316 µM [rising, partial curve] under setting [2] and 0.794 µM [rising, partial curve] under setting [3].

Turning to `O=C(OCCN1CCOCC1)C1(c2ccccc2)CCCCC1`, the max response under setting [1] was 70.3% and -10.5%; the max response under setting [4] was 83.5% and -9.08%. The AC50 reads like this: under setting [2], 7.08 µM [falling, full curve, poor fit]; under setting [3], 7.08 µM [falling, full curve, poor fit].

Consider `Cc1cc(Cn2cnc3c2C[C@@H](C(=O)O)N(C(=O)C(c2ccccc2)c2ccccc2)C3)ccc1N(C)C`, for which the max response runs as follows: under setting [1], 77%; under setting [4], 94.9%. The AC50 is 22.4 µM [rising, partial curve] under setting [2] and 15.8 µM [rising, full curve] under setting [3].

With `COc1ccc(NC(=O)N2CCC3(CC2)CCN(C(=O)c2cccn2C)CC3)cc1`, the max response turned out to be 24.8% under setting [1] and 33.5% under setting [4]. Also, the AC50 runs as follows: under setting [2], 0.224 µM [rising, full curve, poor fit]; under setting [3], 0.282 µM [rising, full curve, poor fit].

For `c1ccc(CNc2nc(-c3ccoc3)nc3ccccc23)cc1`, the max response runs as follows: under setting [1], 6.11%; under setting [4], 5.88%. Also, the AC50 reads like this: under setting [2], 0.2 µM [rising, full curve, poor fit]; under setting [3], 0.2 µM [rising, full curve].

Regarding `COc1ccc2[nH]c(I)c(CCNC(C)=O)c2c1`, the max response by setting is: under setting [1], 99.5%; under setting [4], 129%. The AC50 is, setting by setting: under setting [2], 3.55 µM [rising, full curve]; under setting [3], 3.55 µM [rising, full curve].

As to `CSCCC(N)C(=O)NC(CC(C)C)C(=O)NC(Cc1ccccc1)C(=O)O` (stereo not given), the max response by setting is: under setting [1], 30.3%; under setting [4], 39.9%. Moreover, the AC50 under setting [2] is 11.2 µM [rising, partial curve, poor fit] and the AC50 under setting [3] was 6.31 µM [rising, partial curve].

As for `COc1cc(C(O)C(=O)O)ccc1O` (stereo not given), the max response was found to be 55.8% under setting [1] and 59.2% under setting [4]. Moreover, the AC50 reads like this: under setting [2], 39.8 µM [rising, single point]; under setting [3], 44.7 µM [rising, single point].

Turning to `OCCNCCCOc1cccc(Cl)c1Cl`, the max response reads like this: under setting [1], -7.53%; under setting [4], -12.7%. The AC50 under setting [2] is 0.501 µM [falling, partial curve, poor fit] and the AC50 under setting [3] was 5.01 µM [falling, partial curve, poor fit].

On to `Cc1cnc(CNc2ncnc3ccc(-c4ccc5c(c4)OCO5)cc23)cn1`, for which the max response under setting [1] was found to be 29.9% and the max response under setting [4] worked out at 35.9%. Also, the AC50 under setting [2] was 0.891 µM [rising, full curve, poor fit] and the AC50 under setting [3] was 1 µM [rising, full curve, poor fit].

`COc1ccc(CNc2ccnc(-c3cccc(C#N)c3)n2)c(OC)c1`: the max response reads like this: under setting [1], 10%; under setting [4], 6.55%. Besides, the AC50 under setting [2] was 3.98 µM [rising, partial curve] and the AC50 under setting [3] was 6.31 µM [rising, partial curve, poor fit].

Consider `NC(=NCCC[C@H](N)C(=O)O)NO`, for which the max response runs as follows: under setting [1], 51.6%; under setting [4], 51.2%. The half-maximal activity concentration (AC50) was 2.82 µM [falling, full curve, poor fit] under setting [2] and 2.82 µM [falling, full curve, poor fit] under setting [3].

As for `COc1ccc2c(=O)cc(-c3ccccc3)oc2c1O`, the max response runs as follows: under setting [1], 126%; under setting [4], 159%. The AC50 was 28.2 µM [rising, partial curve] under setting [2] and 31.6 µM [rising, partial curve] under setting [3].

Regarding `CC(C)C[C@@H](NC(=O)OCC1c2ccccc2-c2ccccc21)C(=O)O`, the max response reads like this: under setting [1], 54.3%; under setting [4], 68.9%. Further, the AC50 by setting is: under setting [2], 14.1 µM [rising, partial curve, poor fit]; under setting [3], 14.1 µM [rising, partial curve, poor fit].

For `Oc1cc2c(c(Cl)c1O)CCNC[C@H]2c1ccccc1`, the max response was 43.3% under setting [1] and 50% under setting [4]. Also, the AC50 is 25.1 µM [rising, partial curve, poor fit] under setting [2] and 25.1 µM [rising, partial curve] under setting [3].

For the compound `COc1ccc(-c2coc3cc(OC)cc(OC)c3c2=O)cc1`, the max response under setting [1] was 32.1% and the max response under setting [4] was 44.9%. The AC50 is 2.24 µM [rising, full curve, poor fit] under setting [2] and 1.12 µM [rising, full curve, poor fit] under setting [3].

Regarding `Clc1ccccc1-c1nc(NCc2cccs2)c2ccccc2n1`, the max response stood at 36.6% under setting [1] and 45.6% under setting [4]. For the same compound, the AC50 was 2.82 µM [rising, full curve] under setting [2] and 2.51 µM [rising, full curve] under setting [3].

Take `CCOC(=O)c1c(C)[nH]c2ccc3c(c12)CN1CCc2cc(OC)ccc2[C@@H]1O3`: the max response runs as follows: under setting [1], 27.7%; under setting [4], 7.43%. The AC50 by setting is: under setting [2], 2.82 µM [rising, full curve, poor fit]; under setting [3], 2.82 µM [rising, full curve, poor fit].

With `O=C(c1ccc(F)cc1)C1CCN(CCCCc2ccccc2)CC1`, the max response by setting is: under setting [1], 72.1%; under setting [4], 96.7%. Moreover, the AC50 reads like this: under setting [2], 12.6 µM [rising, partial curve, poor fit]; under setting [3], 15.8 µM [rising, partial curve, poor fit].

With `COCCn1c(=O)c(-c2cccc(C#N)c2)nc2cnc(Oc3cccc(Cl)c3)nc21`, the max response reads like this: under setting [1], -3.89%; under setting [4], -11.2%. In addition, the AC50 is, setting by setting: under setting [2], 3.16 µM [rising, single point]; under setting [3], 3.55 µM [rising, single point].

Take `COC(=O)C1C(O)CC[C@H]2CN3CCc4c([nH]c5ccccc45)C3C[C@H]12` (stereo not given in full): the max response under setting [1] is 16.2% and the max response under setting [4] is 30.1%. Besides, the AC50 reads like this: under setting [2], 3.55 µM [rising, partial curve, poor fit]; under setting [3], 1.58 µM [rising, full curve, poor fit].

Take `O=c1c(-c2cccs2)nc2cnc(N3CCOCC3)nc2n1CCc1ccccc1`: the max response by setting is: under setting [1], 46.9%; under setting [4], 41.4%. For the same compound, the AC50 is 2.51 µM [rising, partial curve] under setting [2] and 0.891 µM [rising, full curve] under setting [3].

As for `COc1ncc2nc(-c3ccc(Cl)cc3)c(=O)n(CCC#N)c2n1`, the max response runs as follows: under setting [1], 34.2%; under setting [4], 42.8%. Also, the AC50 reads like this: under setting [2], 0.0501 µM [rising, full curve, poor fit]; under setting [3], 0.0631 µM [rising, full curve].

As to `CC(C)=CCc1c2c(c3occ(-c4ccc(O)c(O)c4)c(=O)c3c1O)C=CC(C)(C)O2`, the max response reads like this: under setting [1], -70.5%; under setting [4], -77.8%. The AC50 was 39.8 µM [falling, single point] under setting [2] and 31.6 µM [falling, single point] under setting [3].

`c1csc(CNc2nc(-c3ccoc3)nc3ccccc23)c1`: the max response reads like this: under setting [1], 15.3%; under setting [4], 20.6%. Also, the AC50 by setting is: under setting [2], 0.316 µM [rising, full curve, poor fit]; under setting [3], 0.447 µM [rising, full curve].

For `COc1ccccc1CNc1nc(-c2cccnc2)nc2ccccc12`, the max response runs as follows: under setting [1], 25.3%; under setting [4], 33.7%. In addition, the AC50 under setting [2] was 0.794 µM [rising, full curve] and the AC50 under setting [3] is 0.708 µM [rising, full curve].

On to `COc1cccc(OC)c1OCCNC[C@@H]1COc2ccccc2O1`, for which the max response reads like this: under setting [1], 78.4%; under setting [4], 107%. Also, the AC50 is, setting by setting: under setting [2], 14.1 µM [rising, partial curve, poor fit]; under setting [3], 12.6 µM [rising, partial curve, poor fit].

As for `CCCCCCCCCCCCC(=O)N1CCCC[C@H]1CNC(=O)[C@@H](N)CCCCN`, the max response is 88.8% under setting [1] and 132% under setting [4]. Further, the AC50 runs as follows: under setting [2], 31.6 µM [rising, partial curve]; under setting [3], 35.5 µM [rising, partial curve].

As to `NC(=O)C(=O)O`, the max response is, setting by setting: under setting [1], 33.6%; under setting [4], 34.2%. In addition, the half-maximal activity concentration (AC50) under setting [2] is 7.08 µM [falling, partial curve, poor fit] and the AC50 under setting [3] was 7.08 µM [falling, partial curve, poor fit].

With `CC(C)N=c1cc2n(-c3ccc(Cl)cc3)c3ccccc3nc-2cc1Nc1ccc(Cl)cc1`, the max response runs as follows: under setting [1], -86.4%; under setting [4], -112%. Moreover, the AC50 reads like this: under setting [2], 12.6 µM [falling, partial curve]; under setting [3], 14.1 µM [falling, partial curve].

Consider `O=C(c1ccco1)N1CCC2(CCCN(c3ccccn3)C2)CC1`, for which the max response came out at 0.458% under setting [1] and 9.38% under setting [4]. Further, the AC50 is 0.0794 µM [rising, full curve, poor fit] under setting [2] and 0.0501 µM [rising, full curve, poor fit] under setting [3].

Source of the values: PubChem BioAssay (NCATS).
